From the supplement of paper PMC10369915
The list shows a part of the results. Rule as the data show it: active = 3.2 or more and inactive = the rest. The signal is at background level for most entries.

How the values were obtained:
Assay in all cases: enrichment score (SH2-bound / input frequency) (ratio); bacterial display of known human phosphotyrosine sites (pTyr-Var adds point mutants) read by sequencing; higher = stronger binding; tyrosines were phosphorylated by kinases first
Details in all cases: peptide library: Human pTyr
[1] = target: SHP2 C-SH2 domain E139D
[2] = target: SHP2 C-SH2 domain wild-type
[3] = target: SHP2 N-SH2 domain L43F
[4] = target: SHP2 N-SH2 domain T42A
[5] = target: SHP2 N-SH2 domain T52S
[6] = target: SHP2 N-SH2 domain wild-type

Measured: enrichment score
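Also: displayed peptides selected on beads carrying the immobilized SH2 domain, with library peptides lacking any tyrosine serving as negative controls.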

STFIGEHYVHVNATY [MET_HUMAN_1349]
inactive: [1] 0.987 | [2] 1.1 | [3] 1.06 | [4] 1.06 | [5] 0.927 | [6] 1.16

AVHVNATYVNVKCVA [MET_HUMAN_1356_YA]
inactive: [1] 2.01 | [2] 1.58 | [3] 1.7 | [4] 1.46 | [5] 1.99 | [6] 1.97

NVKCVAPYPSLLSSE [MET_HUMAN_1365]
inactive: [1] 1.06 | [2] 0.919 | [3] 1.09 | [4] 0.964 | [5] 1.12 | [6] 1.34

MSRLCQDYDTIGPEG [ANK1_HUMAN_1073]
inactive: [1] 0.856 | [2] 0.803 | [3] 0.742 | [4] 0.817 | [5] 1.33 | [6] 1.01

AIPSAPLYEEITASG [MGRN1_HUMAN_411_YA]
inactive: [1] 0.656 | [2] 0.518 | [3] 0.722 | [4] 0.729 | [5] 0.807 | [6] 0.695

SGSKSQRYSGAYGAS [MIC19_HUMAN_49]
inactive: [1] 0.832 | [2] 0.631 | [3] 0.787 | [4] 0.666 | [5] 0.855 | [6] 0.64

SGSKSQRYSGAAGAS [MIC19_HUMAN_49_YA]
inactive: [1] 0.795 | [2] 0.688 | [3] 0.717 | [4] 0.727 | [5] 0.809 | [6] 0.822

SYKSGYVYSELNFGG [MILR1_HUMAN_338]
inactive: [1] 2.64 | [6] 2.8
active: [2] 5.71 | [3] 14.7 | [4] 35.5 | [5] 9.18

EGAAFPAYRAPHAGG [MIXL1_HUMAN_20]
inactive: [1] 0.811 | [2] 0.652 | [3] 0.674 | [4] 0.73 | [5] 0.662 | [6] 0.609

TNFMMTPYVVTRAAR [MK09_HUMAN_185_YA]
inactive: [1] 0.938 | [2] 0.787 | [3] 0.948 | [4] 0.861 | [5] 0.766 | [6] 1.39

ADSEMTGYVVTRWYR [MK12_HUMAN_185]
inactive: [1] 2.06 | [2] 1.92 | [3] 1.9 | [4] 1.62 | [5] 1.94 | [6] 2.09

ADAEMTGYVVTRWAR [MK13_HUMAN_182_YA]
inactive: [1] 2.35 | [2] 1.89 | [3] 1.88 | [4] 1.55 | [5] 1.85 | [6] 1.92

TDDEMTGYVATRWYR [MK14_HUMAN_182]
inactive: [1] 0.827 | [2] 0.823 | [3] 0.752 | [4] 0.797 | [5] 0.898 | [6] 0.825

TDDEMTGYVATRWAR [MK14_HUMAN_182_YA]
inactive: [1] 0.795 | [2] 0.685 | [3] 0.733 | [4] 0.801 | [5] 0.822 | [6] 0.768

EDQAVTEYVATRWYR [MK15_HUMAN_177]
inactive: [1] 0.856 | [2] 0.859 | [3] 0.832 | [4] 0.813 | [5] 0.956 | [6] 0.928

EDQAVTEYVATRWAR [MK15_HUMAN_177_YA]
inactive: [1] 0.914 | [2] 0.694 | [3] 0.687 | [4] 0.763 | [5] 0.693 | [6] 0.706

GQNVLHGYPKDIYSS [MMP1_HUMAN_360]
inactive: [1] 0.912 | [2] 0.767 | [3] 0.878 | [4] 0.762 | [5] 0.809 | [6] 0.921

GQNVLHGYPKDIASS [MMP1_HUMAN_360_YA]
inactive: [1] 0.691 | [2] 0.525 | [3] 0.579 | [4] 0.603 | [5] 0.647 | [6] 0.573
